# Test results from the RNAGym collection of RNA variant scans (doi:10.1073/pnas.2313332121).
# Variants at the background level are over-represented here.
# B1: TPR 5TU (parent)
# chain: GGAUCUUCUCGAUCUAACAAAAAAGACAAAUCUGCCACAAAGCUUGAGAGCAUCUUCGGAUGCAGAGGCGGCAGCCUUCGGUGGCGCGAUAGCGCCAACGUUCUCAACUAUGACACGCAAAACGCGUGCUCCGUUGAAUGGAGUUUAUCAUG
# Variants of: B1
# Assay: polymerase ribozyme fitness, log enrichment relative to wild type (log ratio); higher = more active; in vitro selection for triplet polymerase activity
# In short: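 Genotype fitness is the logarithm of its enrichment divided by wild-type enrichment, using inverse-variance-weighted averages of replicates. That logarithm is base 2. Enrichment was measured by Illumina sequencing of input and output libraries from one triplicate in vitro selection round, with frozen incubation at −7 °C, on PCR-built, transcribed mutant libraries of each subunit of a heterodimeric triplet polymerase ribozyme, retaining genotypes with ≥10 input reads and ≥1 read per output.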
row,Variant,polymerase ribozyme fitness (log ratio)
1,A30G U77A A150G,≤ -4.2
2,A30G U82G A122G U146G,-4.18
3,A30U A39C U45A U55A U77G C87U C95U,≤ -4.2
4,A30U A39G A49U C72A U90C G94A C99A U102G A137C G141C,≤ -4.2
5,A30U A39G A147C,≤ -4.2
6,A30U A40C U55G G86U,≤ -4.2
7,A30U A40G C96G G140U,≤ -4.2
8,A30U A40G G58C C79U G80U C85U G124U C125U,≤ -4.2
9,A30U A40G G80U G88C A89C G92C U144C,≤ -4.2
10,A30U A40U C87G C103G G141A,-3.9
11,A30U A41C C69A A106U A110G,≤ -4.2
12,A30U A41C G58U G81A,≤ -4.2
13,A30U A41G C57G U61A A97G U101G G141C,≤ -4.2
14,A30U A41U A47C C93U A107G A115C U135A,≤ -4.2
15,A30U A41U G70U G92U C149U,≤ -4.2
16,A30U A49C C54U G86A G141C U148C,≤ -4.2
17,A30U A49C C76U C125G G126C A137U U151G,≤ -4.2
18,A30U A49C G58A A119C G128U U134G,≤ -4.2
19,A30U A49G,≤ -4.2
20,A30U A49G C54U G68C A91C,≤ -4.2
21,A30U A52C A91G G117A,≤ -4.2

row,Variant,polymerase ribozyme fitness (log ratio)
1,A30U A52C U82A U101A G128A G136U G141C,≤ -4.2
2,A30U A52G A91G C95U U102G C103G C105U,≤ -4.2
3,A30U A52G C57U A138G,≤ -4.2
4,A30U A52G C76U G83A G86U U148A,≤ -4.2
5,A30U A52U C79U U101G,≤ -4.2
6,A30U A52U U90A C93G A113C,≤ -4.2
7,A30U A60G G80A C96U G143A,≤ -4.2
8,A30U A64C C72U A97U A119U G136A,≤ -4.2
9,A30U A64U C79U C85U G92C U109A,≤ -4.2
10,A30U A66U A138U,≤ -4.2
11,A30U A73U G86U G126A,≤ -4.2
12,A30U A91C C95U A98C U111G G117U,≤ -4.2
13,A30U A137U A138U G143C A147U,≤ -4.2
14,A30U C32A A52U G88C A113U U134G,≤ -4.2
15,A30U C32U A115U G143C,≤ -4.2
16,A30U C35A U55A C96G A120C,≤ -4.2
17,A30U C35U A41U G42A G94C U134C,≤ -4.2
18,A30U C35U U130C A137C,≤ -4.2
19,A30U C36U U82G G88C C96U A97U U104A A110G G126U G136U,≤ -4.2
20,A30U C38U C75U A91C C93U A98G A142C,≤ -4.2
21,A30U C38U U55G C63U C75A C76G G88C C108U,≤ -4.2

row,Variant,polymerase ribozyme fitness (log ratio)
1,A30U C51G A98U G136U,≤ -4.2
2,A30U C51U G62C U82G G133U,≤ -4.2
3,A30U C51U U55A U90A C93U G94C G100U U102G U144A,≤ -4.2
4,A30U C54U U77A G84A G140C,≤ -4.2
5,A30U C57A G68A C108G,≤ -4.2
6,A30U C63A C85U C99A C105G C123G A142C,≤ -4.2
7,A30U C69G C79A C87G G126A G140C,≤ -4.2
8,A30U C69G C93G C96A,≤ -4.2
9,A30U C69U C85U A106G C123U A137G,≤ -4.2
10,A30U C75G G84U C103G G124C,≤ -4.2
11,A30U C79U C123U,≤ -4.2
12,A30U C85A,≤ -4.2
13,A30U C85G,≤ -4.2
14,A30U C85G C95A A150U,≤ -4.2
15,A30U C87A,≤ -4.2
16,A30U C87U,-3.22
17,A30U C103G A106G G136U,≤ -4.2
18,A30U C108G G141C C149A,≤ -4.2
19,A30U G34U C75G G92U A137G,≤ -4.2
20,A30U G42A U77C U144A,≤ -4.2
21,A30U G42U A119G A138G,≤ -4.2

row,Variant,polymerase ribozyme fitness (log ratio)
1,A30U G42U G65A G86U U104G,≤ -4.2
2,A30U G46U U53A C57U C69G G81A C95U U144A,≤ -4.2
3,A30U G46U U55G C79A U101G C108G C116U A119G G136U,≤ -4.2
4,A30U G50A A66C U77A C93A G133C G140C U151G,≤ -4.2
5,A30U G50A U77C,≤ -4.2
6,A30U G50C C54G G70C A97U C149A,≤ -4.2
7,A30U G50C C87A C95A A137G U146G,≤ -4.2
8,A30U G50U G74U G94C,≤ -4.2
9,A30U G50U U56G G58C G152A,≤ -4.2
10,A30U G58A C87U U90G U101A A110C G112A G126U,≤ -4.2
11,A30U G58U G94U,≤ -4.2
12,A30U G68A C93U,≤ -4.2
13,A30U G68A G70A G86U G133U U144A,≤ -4.2
14,A30U G68C G92A C114A A138G,≤ -4.2
15,A30U G74A,≤ -4.2
16,A30U G83C G128A U135C,≤ -4.2
17,A30U G88C U90G U145A,≤ -4.2
18,A30U G94C A150U,-3.55
19,A30U U31A U44A C93U,≤ -4.2
20,A30U U31C U53A U55A A89U C103G G126U A150U,≤ -4.2
21,A30U U33G G42A C54G C57A U78G C85A C105U,≤ -4.2
